Data from PubChem BioAssay AID602233 (National Center for Advancing Translational Sciences (NCATS), 2012).
Hit rate of the full screen: of about 380,000 compounds, about 170 (0.045%) were called active. This list was built around the results that the source calls inconclusive (neither active nor inactive); the mix of calls is not that of the screen. The call rests on the fitted dose curve; in most records, active means well fitted inhibition curve with a large enough effect; inconclusive means small, poorly fitted or top-dose-only effect; inactive means no such curve, though single readings can be large or run the other way. Where the call is inconclusive, the potency comes from a doubtful curve fit.

These compounds were tested against Phosphoglycerate kinase, glycosomal (Trypanosoma brucei brucei) (UniProt P07378) (assay: qHTS Assay to Find Inhibitors of Phosphoglycerate Kinase). Settings: PGK/GAPDH coupled, Kinase-Glo luminescence, 60 min; series mostly up to 57.5 µM.
How it was run: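 Recombinant glycosomal PGK reaction used 1,3-bisphosphoglycerate generated in-well by GAPDH (100nM final) in 100mM TEA pH 7.6, 5mM MgCl2, 0.01% Tween-20. After 60 minutes at room temperature, ATP was read by Kinase-Glo Plus luminescence end-point.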
Further: nearly all actives have a fitted effect of over 60% in size.
Potency means the concentration at half of the fitted maximal effect; tags describe the fitted curve by direction and shape.

Potency, inactive:
O=C(Nc1cccc(S(=O)(=O)N2CCCCC2)c1)c1ccc(S(=O)(=O)C(F)F)cc1, Cc1noc(-c2ccc(NC(C)c3ccccc3)c([N+](=O)[O-])c2)n1 (stereo not given), COc1cccc(-c2c(-c3cc(OC)cc(OC)c3)n(C)c3ccc(-c4cccc5[nH]ccc45)cc23)c1, O=C(NN=C1CCCC1)c1ccccc1O

Potency, inconclusive:
CCCN(C(=O)c1cccc(-n2cccc2)c1)c1c(N)n(Cc2ccccc2)c(=O)[nH]c1=O 22.4 µM [inhibitor, single point], CN(C)c1ccc(N/C=C/C(=O)c2ccccc2)cc1 15.8 µM [inhibitor, partial curve, poor fit], CC(C)OC(=O)c1c(NC(=O)C2CC=CCC2C(=O)O)sc2c1CCCCC2 (stereo not given) 31.6 µM [inhibitor, single point], O=C(Nc1ncc([N+](=O)[O-])s1)c1ccc2c(c1)OCO2 39.8 µM [inhibitor, partial curve, poor fit], O=C(N/N=C/c1ccncc1)c1cccc(S(=O)(=O)Nc2ccc(Cl)cc2)c1 31.6 µM [inhibitor, single point], CCc1ccc(N=C2NC(=O)/C(=C/c3ccc(OCC(=O)O)cc3)S2)cc1 31.6 µM [inhibitor, single point], Cc1onc(-c2ccccc2)c1C(=O)OCC(=O)c1ccccc1 39.8 µM [inhibitor, single point], CCCc1cc(=O)oc2cc(OCC(=O)Nc3ccc(S(N)(=O)=O)cc3)ccc12 17.8 µM [inhibitor, partial curve, poor fit], Cc1ccc(C)c(Cn2nnc3c(=O)[nH]c(C(=O)NCc4ccco4)nc32)c1 39.8 µM [inhibitor, partial curve, poor fit], CN(C)c1ccc(CNC(=O)CCS(=O)(=O)c2ccc3c(c2)n(C)c(=O)c(=O)n3C)cc1 8.91 µM [inhibitor, full curve], COc1ccc([N+](=O)[O-])cc1NC(=O)CCS(=O)(=O)c1ccc(Br)cc1 8.91 µM [inhibitor, full curve], O=C(O)c1ccccc1N=N/C(=N/Nc1cc(S(=O)(=O)O)ccc1O)c1ccccc1 28.2 µM [inhibitor, single point], CCCCN(C(=O)C(C)N1C(=O)c2ccccc2C1=O)c1c(N)n(CC(C)C)c(=O)[nH]c1=O (stereo not given) 35.5 µM [inhibitor, partial curve, poor fit], CN(C)C(=O)COC(=O)c1ccc(S(=O)(=O)NCc2ccco2)cc1 28.2 µM [inhibitor, single point], COc1ccc(S(=O)(=O)N(CCCN2CCCC2=O)Cc2cc3c(C)ccc(C)c3[nH]c2=O)cc1 39.8 µM [inhibitor, single point], CCc1ccccc1NC(=O)CCS(=O)(=O)c1ccc(Br)cc1 39.8 µM [inhibitor, partial curve, poor fit], Oc1c(N=Nc2ccccn2)ccc2ccccc12 31.6 µM [inhibitor, single point], CN(CCC#N)C(=O)c1ccc(CNS(=O)(=O)c2ccc(F)cc2)cc1 4.47 µM [inhibitor, single point], O=C(O)c1ccc(Nc2nc(-c3cc4ccccc4oc3=O)cs2)cc1O 39.8 µM [inhibitor, single point], COc1ccc(S(=O)(=O)N2CCN(C(=O)C3COc4ccccc4O3)CC2)cc1 (stereo not given) 31.6 µM [inhibitor, partial curve, poor fit], COc1ccc(Cc2nnc(NC(=O)Cc3cccs3)s2)cc1 22.4 µM [inhibitor, partial curve]
